Experimental findings from PubChem BioAssay (NCI) are described below.

The structures appear in SMILES notation. Where “and” joins values, the source holds several entries; their conditions need not be identical. Equal entries are not always repeated.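 Grown in 96-well plates, cells were treated for 48 hours with each compound at five concentrations. Insufficient inhibition: endpoint recorded as highest concentration tested. GI50 is the concentration that inhibits growth by half. Definition used: TGI = concentration required for complete inhibition of growth.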 Where only a bound is given, the exact number is not on record here.

This assay has as its system NCI-H322M lung. The assay is described as follows: growth of human tumour cells (NCI), 48 h.
Compound `O=C(CSc1nnc(Cc2ccccc2)o1)Nc1ccc([N+](=O)[O-])cc1` registered a TGI of over 100 µM.
Still for that read-out and setting: under `O=C(OCC1OC2OC(c3ccccc3)(n3ccc4c([N+](=O)[O-])ccnc43)OC2C1OC(=O)c1ccccc1)c1ccccc1` (centres undefined) stands over 100 µM; under `CN(C)C(=S)/N=c1\ss/c(=N\C(=S)N(C)C)n1-c1ccc(Cl)c(Cl)c1`, over 100 µM.
In the case of `O=C(Nc1ccc(-n2cc(-c3ccncc3)c(-c3ccc(Cl)c(O)c3)n2)cc1)Nc1ccc(Cl)c(C(F)(F)F)c1`, the GI50 was 1.58 µM and the TGI came out at 3.95 µM.
Consider `CC(C)OC(=O)NNc1cc(Cl)ccc1Cl`, for which the TGI is over 100 µM.
Regarding `COc1ccc(Nc2c3ccccc3nc3occ(Cl)c23)cc1`, the GI50 was 0.0458 µM and the TGI was 21.9 µM.
Take `Cc1cc(NS(=O)(=O)c2ccc(Nc3c4ccccc4nc4c(C(=O)NCCN(C)C)cccc34)cc2)no1`: the TGI is over 100 µM.
Same read-out and setting: the value for `O=c1oc2ccccc2c(Nc2ccc3c(c2)Oc2ccccc2O3)c1[N+](=O)[O-]` was over 100 µM.
`C=C1C(=O)CC2C(=O)C(C)(O)CC/C=C(\C)C(=O)CC12` (centres undefined): the TGI is over 100 µM.
Take `NC(CS/C(Cl)=C/Cl)C(=O)O` (centres undefined): the GI50 was 24 µM and the TGI is over 78.1 µM.
With `O=C1c2ccccc2-c2nc(-c3cccc([N+](=O)[O-])c3)nnc21`, the TGI worked out at 22.6 µM.
On the same count and under the same terms, under `CN1NC(=Nc2ccccc2)Sc2c1cnn(-c1ccccc1)c2=O` stands over 100 µM.
Take `Cc1cc[c-]cc1.Fc1c[c-]c(-c2ccccn2)c(F)c1.[Pt+2].c1ccc(P(C[PH+](c2ccccc2)c2ccccc2)c2ccccc2)cc1`: the GI50 is 2.5 µM and the TGI is 10.3 µM.
For `COc1ccc(OC)c2c(/C=C/c3ccc(N(C)C)cc3)ccnc12`, the TGI is over 10 µM.
As for `COC(=O)/C(C=O)=C/Sc1ccccc1`, the TGI is over 100 µM.
Compound `COC(=O)/C(C#N)=C1\CCC(O)N1` (centres undefined) returned a TGI of over 100 µM.
On the same count and under the same terms, under `CCOc1ccc(-c2nc(-c3oc4ccccc4c(=O)c3OC(C)=O)cs2)cc1` stands over 10 µM.
The same measure, in the same setting: under `COc1ccc(/C=N/N=C(\N)NO)c(O)c1` stands over 10 µM; under `N#Cc1nc(-c2cccs2)oc1N`, over 100 µM.
As for `COc1cc2c(c(OC)n1)[C@]1(O)[C@H](O)[C@H](CN(C)C)[C@@H](c3ccccc3)[C@]1(c1ccc(C#N)cc1)O2`, the GI50 was 0.0328 µM and 0.0262 µM; the TGI was 1.83 µM and 1.31 µM.
On to `C/C=C/C(O)P1(=O)N(Cc2ccccc2)[C@@H]2CCCC[C@H]2N1Cc1ccccc1` (some centres undefined), for which the TGI is over 25 µM.
As to `COCCOc1cnc2ccn([C@H](C)c3nnc4c(F)cc(-c5cnn(C)c5)cn34)c(=O)c2c1`, the GI50 is over 100 µM and the TGI was over 100 µM.
As for `CC(C)C(=O)/C=C/c1ccc(Br)cc1`, the TGI was determined as 39.5 µM.
On the same count and under the same terms, under `CCOC(=O)/C=C(\C(=O)OCC)n1cc(C)c(=O)n(Cc2cnnn2CCCCOC(C)=O)c1=O` stands over 59.9 µM.
`N.N.N.N.[Cl-].[Co+3].[N-]=[N+]=[N-].[N-]=[N+]=[N-]`: the GI50 is over 100 µM and the TGI was over 100 µM.
With `CC(C)CCCC(C)[C@H]1CCC2[C@H]3C(CC[C@@]21C)[C@@]1(C)CCC=C[C@]12C[C@@H]2[C@@H]3O` (some centres undefined), the TGI was over 100 µM.
Compound `NP(=O)(OCC1=CC(=O)c2ccccc2C1=O)N(CCBr)CCBr` (centres undefined) gave a TGI of 13.6 µM.
Regarding `COc1cc2ncn(-c3cc(OCCc4ccccc4)c(C(N)=O)s3)c2cc1OC`, the GI50 is over 25 µM and the TGI is over 25 µM.
Compound `CCOC(=O)c1ccc(N2C(=S)N(C(=O)c3ccccc3)C(=Nc3ccccc3)C2=Nc2ccccc2)cc1` registered a TGI of over 100 µM.
On the same count and under the same terms, the value for `CCN1C(=O)C(=C/C=C/c2ccc([N+](=O)[O-])cc2)C(=O)N(CC)C1=S` was over 100 µM.
With `Cc1cn2c(/C=C3\C(=O)N(C)c4ccc(O)cc43)c(C)nc2s1`, the GI50 was 20.2 µM and the TGI is over 100 µM.
For `CCn1c(CO)nn(-c2cc(O[C@@H](C)C(F)(F)F)c(C(=O)Nc3c(F)cccc3Cl)cc2F)c1=O` the same measures were 0.348 µM and over 100 µM.
`Cc1ccc(C2(O)CC(c3ccc([N+](=O)[O-])o3)=NN2C(=O)COc2ccc(Cl)cc2)cc1` (centres undefined) returned a TGI of 33.7 µM.
On the same count and under the same terms, under `NCCSc1nc2ccccc2c(=O)n1-c1ccccc1` stands over 100 µM; under `CCOC(=O)/C1=C(\C)N(c2ccc(C)cc2)C(=O)c2ccccc2C(=O)c2c(OC(C)=O)ccc(OC(C)=O)c21`, 38 µM.
The same measure, in the same setting: the value for `COc1ccc(C2c3cc(OC)c(OC)cc3C(Cc3ccc([N+](=O)[O-])cc3)C2c2ccc([N+](=O)[O-])cc2)cc1OC` (centres undefined) was over 100 µM; that for `C=CCSS/C=C/CS(=O)CC=C` (centres undefined) was over 100 µM.
Regarding `N#C/C(=C/N1CCN(C(=O)c2ccco2)C1=S)C(=O)c1ccccc1`, the GI50 was 23.4 µM and the TGI amounted to 75.3 µM.
As for `Cc1ccc(S(=O)(=O)OCC(=O)O)cc1`, the TGI is over 100 µM.
Still for that read-out and setting: under `N=C(N)c1ccc(N=Nc2c(O)ccc3c2[nH]c2ccccc23)cc1` stands 41.3 µM; under `CC1=NN(c2ccc(S(=O)(=O)O)cc2)C2(C1)SCC(=O)N2c1nc2ccccc2s1` (centres undefined), over 100 µM.
Compound `CNC(=O)Oc1ccc(-c2cn3cc(OC(=O)NC)ccc3n2)cc1` returned a TGI of over 100 µM.
Same read-out and setting: under `O=C1c2ccc3c4ccccc4n(Cc4ccccc4)c3c2C(=O)N1c1ccccc1` stands over 70.6 µM.
Consider `Cn1cc(C2=C(c3cn(CCCCCN)c4ccccc34)C(=O)NC2=O)c2ccccc21`, for which the GI50 was 17.4 µM and the TGI is over 25 µM.
For `COc1ccc(C(=O)COc2cccc(/C=C3\Oc4ccc5ccccc5c4C3=O)c2)cc1` the same measures were 16.5 µM and 42.8 µM.
Taken in the same sequence, the figures for `O=C(Nc1ccc(CO)cc1)c1coc2ccccc2c1=O` were over 100 µM and over 100 µM.
In the case of `C1CNCCNCCN1`, the TGI is over 100 µM.
Compound `O=c1[nH]cnc2cccc(Cl)c12` came in with a TGI of over 100 µM.
Regarding `CN(C)Cc1cc(C(=O)/C=C/c2ccccc2Cl)cc(CN(C)C)c1O`, the TGI was 8.43 µM.
For `NC1=NS(=O)(=O)Nc2nc(-c3ccc([N+](=O)[O-])cc3)[nH]c21`, the TGI was over 100 µM.
As for `CCC1(C)N=C(c2cnccn2)NN1c1ccc(Cl)cc1` (centres undefined), the TGI is over 100 µM.
`COc1cc2ccc3c4cc(OC)c(OC(C)C)cc4cnc3c2cc1OC`: the TGI was over 100 µM.
For `COc1ccc2c(c1)[C@@]13CCCC[C@H]1[C@@H](C2)N(C)CC3=O`, the TGI is over 100 µM.
In the case of `COc1ccc2c(O)cc3c(c2c1)[C@H](CCl)CN3C(=O)c1cc2cc(NC(=O)CCN3CCOCC3)ccc2[se]1`, the GI50 is under 0.001 µM and the TGI was 0.0835 µM.
In the case of `CC1Cn2c(nc3ccccc32)NC1=O` (centres undefined), the TGI was over 100 µM.
Take `C=CCCC(=O)CC(O)(C(F)(F)F)C(F)(F)F`: the TGI is over 100 µM.
Still for that read-out and setting: the value for `O=C1CCCCC(=O)OC2(CCCCC2=O)CC1` (centres undefined) was over 100 µM; that for `N#C/C(=C\n1ccc(=O)[nH]c1=S)C(N)=O` was over 100 µM.
As to `C=C1C(=O)O[C@H]2[C@H]1CC/C(COC(=O)c1ccc(Cl)nc1)=C\CC[C@@]1(C)O[C@@H]21`, the GI50 was 6.87 µM and the TGI came to 19.8 µM.
In turn, `CC(C)CNC(=O)O` displayed a TGI of over 100 µM.
`CCOP(=O)(OCC)c1c(C(=O)OC)cc(=O)[nH]c1-c1ccc(C)cc1`: the TGI is over 54.3 µM.
Still for that read-out and setting: the value for `O=C1OC2(OC2c2ccccc2)c2ccccc21` (centres undefined) was over 100 µM; that for `O=C(Cc1ccccc1)NN1C(=O)/C(=C\c2cccc(O)c2)SC1=Nc1ccccc1` was over 100 µM; that for `CC(=O)OC1CC2C(C)(C)OC(=O)CC(OC(C)=O)[C@]2(C)C2CCC3(C)C(=CCC3[C@H]3COC(=O)C3)[C@]12C` (some centres undefined) was over 100 µM.
For `CC(=O)O[C@H](C[C@H](C(C)C)N(C)C(=O)[C@@H](NC(=O)[C@H]1CCCCN1C)C(C)C)c1nc(C(=O)N[C@@H](Cc2ccccc2)C[C@H](C)C(=O)O)c(CCOCc2ccccc2)s1`, the GI50 is under 0.001 µM and the TGI was over 10 µM.
The compound `CC1(CF)SCc2nc3ccccc3n21` (centres undefined) returned a TGI of over 100 µM.
The same measure, in the same setting: the value for `NC1=NS(=O)(=O)Nc2nc(-c3ccc(Cl)cc3)c(-c3ccc(Cl)cc3)nc21` was over 100 µM; that for `CN(O)C(=O)c1cccc(Cl)c1` was over 100 µM.
For the compound `O=C(Nc1ccc(Br)cc1)c1ccc(Cl)c(Cl)c1`, the GI50 is 2.98 µM and the TGI is over 100 µM.
In turn, `Cc1[nH]c(=O)[nH]c(=O)c1/C=C/C(=O)O` had a TGI of over 1000 µM.
Take `O=c1[nH]nc(Cc2ccc([N+](=O)[O-])cc2)n1CCO`: the TGI is over 100 µM.
The same measure, in the same setting: the value for `O=c1[nH]/c(=C/c2ccc(OCc3ccccc3)cn2)c(=O)[nH]/c1=C/c1ccc(O)cc1` was over 100 µM; that for `Cc1ccc2nc(Cl)c(/C=N/N3C(=O)/C(=C/c4ccccc4S)N=C3c3ccccc3)cc2c1` was over 100 µM.
`CC12CCCCC1(C)C2Sc1ccccc1` (centres undefined): the TGI was over 100 µM.
In the case of `CCC(C)(C)c1ccc(OCCCCCCN2CCNCC2)cc1`, the GI50 was 3.05 µM and the TGI came out at 9.26 µM.
`Cc1cn(C2CC(n3cc(Cn4cc(Br)c(=O)[nH]c4=O)nn3)C(CO)O2)c(=O)[nH]c1=O` (centres undefined) came in with a TGI of over 100 µM.
In turn, `CC(=O)O[C@H]1CC[C@@]2(C)C(=CC[C@H]3[C@@H]4C[C@H](N5CCCC5)[C@H](OC(C)=O)[C@@]4(C)CC[C@@H]32)C1` gave a TGI of over 100 µM.
Same read-out and setting: the value for `O=C(O)CC[N+]1=CCC(c2ccccc2)(c2ccccc2)O1` was over 100 µM.
As for `Nc1ccc2[nH]c3c(-c4ccccc4)nccc3c2c1`, the TGI was over 100 µM.
Turning to `COc1cc(C2=C(c3cn(C)c4ccccc34)COC2=O)cc(OC)c1OC`, the GI50 is 0.41 µM and the TGI is over 70.1 µM.
`COc1cc2c(cc1O)C1Cc3ccc(OC)c(O)c3C(C2)N1C` (centres undefined) returned a TGI of over 100 µM.
With `O=C(CSC(c1ccccc1)c1ccccc1)N/N=C/c1ccc(Cl)cc1Cl`, the GI50 is 75.1 µM and the TGI is over 100 µM.
With `C[C@]12CCc3nc(Nc4ccccc4)sc3C1=CC[C@@H]1[C@@H]2CC[C@]2(C)/C(=N/NC(N)=S)CC[C@@H]12`, the GI50 was over 100 µM and the TGI was over 100 µM.
Turning to `COc1cc(Nc2c3ccccc3nc3ccccc23)ccc1NS(C)(=O)=O`, the TGI stood at 19.8 µM.
With `O=C(Nc1ccc(-c2ccccc2)cc1)C1CCN(S(=O)(=O)c2ccccc2Cl)CC1`, the GI50 is over 100 µM and the TGI was over 100 µM.
The compound `O=C(Nc1cc(Cl)ccc1Cl)C(=O)C(c1cnc2ccccc2n1)[N+](=O)[O-]` (centres undefined) gave a TGI of over 100 µM.
